Molecular target: bovine enolase-1 (bovine, UniProt Q9XSJ4 1-434, AlexaFluor-546 maleimide on reactive cysteines (pulldown assay only; unlabeled in the quench and activity assays))
Test: cell-based or functional assay

Sequence of UniProt Q9XSJ4 (Q9XSJ4 whole entry): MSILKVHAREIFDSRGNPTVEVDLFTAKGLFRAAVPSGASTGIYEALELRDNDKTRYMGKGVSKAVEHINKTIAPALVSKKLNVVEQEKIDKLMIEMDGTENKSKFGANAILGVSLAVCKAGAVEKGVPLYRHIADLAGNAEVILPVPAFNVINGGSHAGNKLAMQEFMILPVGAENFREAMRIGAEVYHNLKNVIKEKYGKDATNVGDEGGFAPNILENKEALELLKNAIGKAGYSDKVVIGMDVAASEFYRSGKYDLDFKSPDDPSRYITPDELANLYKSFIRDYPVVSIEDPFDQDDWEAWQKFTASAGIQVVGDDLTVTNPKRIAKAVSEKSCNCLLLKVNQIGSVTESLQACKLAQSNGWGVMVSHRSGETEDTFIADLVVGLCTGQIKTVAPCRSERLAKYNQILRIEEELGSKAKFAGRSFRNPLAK

B1: bovine wild-type arrestin-1, N-terminally His(6)-tagged (other)
chain: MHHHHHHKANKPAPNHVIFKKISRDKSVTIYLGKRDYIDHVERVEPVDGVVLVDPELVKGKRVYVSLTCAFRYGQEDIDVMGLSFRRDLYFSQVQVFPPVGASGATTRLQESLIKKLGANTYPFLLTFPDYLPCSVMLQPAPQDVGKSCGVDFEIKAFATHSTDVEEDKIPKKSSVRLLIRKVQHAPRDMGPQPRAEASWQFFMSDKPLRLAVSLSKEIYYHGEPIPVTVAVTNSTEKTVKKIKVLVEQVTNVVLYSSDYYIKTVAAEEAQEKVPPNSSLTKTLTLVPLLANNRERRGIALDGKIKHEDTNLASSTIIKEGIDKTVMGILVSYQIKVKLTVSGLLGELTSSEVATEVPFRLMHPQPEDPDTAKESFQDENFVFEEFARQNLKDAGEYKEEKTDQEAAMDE
Q: How did the “% inhibition of enolase-1 catalytic activity” value turn out when B1 was run?
A: Its value is 25.2%.
